Source: the antibiotic and cytotoxicity screens of Wong et al. (2023)
The list shows a part of the results.

The compounds below were run on S. aureus RN4220 (assay: growth inhibition call (relative growth <= 0.2)). Details: 50 µM.

Growth inhibition call, inactive:
COCC#Cc1ccc2c(c1)O[C@@H](CN(C)C(=O)c1ccccc1F)[C@@H](C)CN([C@H](C)CO)S2(=O)=O
C[C@@H]1CN([C@@H](C)CO)C(=O)CCCn2cc(nn2)CO[C@H]1CN(C)C(=O)Nc1ccc(C(C)(C)C)cc1
Cc1ccc(S(=O)(=O)Nc2ccc3c(c2)C(=O)N([C@H](C)CO)C[C@@H](C)[C@H](CN(C)C(=O)Nc2ccc4c(c2)OCO4)OCCCC[C@@H](C)O3)cc1
COc1ccc(CN(C)C[C@@H]2Oc3ccc(NC(=O)CCN4CCOCC4)cc3CC(=O)N([C@@H](C)CO)C[C@H]2C)cc1
Cc1ccc(S(=O)(=O)Nc2ccc3c(c2)C(=O)N([C@H](C)CO)C[C@H](C)[C@H](CN(C)Cc2ccc(Oc4ccccc4)cc2)O3)cc1
COc1ccc(CN(C)C[C@H]2OCCCC[C@@H](C)Oc3ccc(NC(=O)Nc4ccccc4)cc3C(=O)N([C@@H](C)CO)C[C@@H]2C)cc1
C[C@@H]1CCCCO[C@H](CN(C)CC2CCCCC2)[C@@H](C)CN([C@H](C)CO)C(=O)c2cc(NC(=O)c3ccncc3)ccc2O1
COc1ccc(C#N)nc1
C[C@@H]1CN([C@H](C)CO)C(=O)c2cc(NS(=O)(=O)c3cn(C)cn3)ccc2O[C@@H]1CN(C)C(=O)Nc1ccccc1
CCCn1c(=O)c(C#N)cn(C2CC2)c1=O
C[C@H]1CN([C@@H](C)CO)C(=O)Cc2cc(NC(=O)CCC(F)(F)F)ccc2O[C@H]1CN(C)Cc1ccc(C(=O)Nc2ccccc2N)cc1
